Test results reported in the supplement of paper PMC3334620.
In all, about 33,000 sequences were measured (“E-score (-0.5 to 0.5)”: median about -0.053, highest 2% from about 0.37 on). Some of the results follow.

The sequences below were run against Hap1 (UniProt P0CE41) (assay: PBM E-score (8-mer binding enrichment) (E-score (-0.5 to 0.5)); higher = stronger / more preferred TF binding; most listed sequences are background and not binding sites). Conditions: protein concentration: 200 nM; construct: GST-DNA-binding domain.
UniProt P0CE41, sequence (P0CE41 whole entry, the tested form may be a part): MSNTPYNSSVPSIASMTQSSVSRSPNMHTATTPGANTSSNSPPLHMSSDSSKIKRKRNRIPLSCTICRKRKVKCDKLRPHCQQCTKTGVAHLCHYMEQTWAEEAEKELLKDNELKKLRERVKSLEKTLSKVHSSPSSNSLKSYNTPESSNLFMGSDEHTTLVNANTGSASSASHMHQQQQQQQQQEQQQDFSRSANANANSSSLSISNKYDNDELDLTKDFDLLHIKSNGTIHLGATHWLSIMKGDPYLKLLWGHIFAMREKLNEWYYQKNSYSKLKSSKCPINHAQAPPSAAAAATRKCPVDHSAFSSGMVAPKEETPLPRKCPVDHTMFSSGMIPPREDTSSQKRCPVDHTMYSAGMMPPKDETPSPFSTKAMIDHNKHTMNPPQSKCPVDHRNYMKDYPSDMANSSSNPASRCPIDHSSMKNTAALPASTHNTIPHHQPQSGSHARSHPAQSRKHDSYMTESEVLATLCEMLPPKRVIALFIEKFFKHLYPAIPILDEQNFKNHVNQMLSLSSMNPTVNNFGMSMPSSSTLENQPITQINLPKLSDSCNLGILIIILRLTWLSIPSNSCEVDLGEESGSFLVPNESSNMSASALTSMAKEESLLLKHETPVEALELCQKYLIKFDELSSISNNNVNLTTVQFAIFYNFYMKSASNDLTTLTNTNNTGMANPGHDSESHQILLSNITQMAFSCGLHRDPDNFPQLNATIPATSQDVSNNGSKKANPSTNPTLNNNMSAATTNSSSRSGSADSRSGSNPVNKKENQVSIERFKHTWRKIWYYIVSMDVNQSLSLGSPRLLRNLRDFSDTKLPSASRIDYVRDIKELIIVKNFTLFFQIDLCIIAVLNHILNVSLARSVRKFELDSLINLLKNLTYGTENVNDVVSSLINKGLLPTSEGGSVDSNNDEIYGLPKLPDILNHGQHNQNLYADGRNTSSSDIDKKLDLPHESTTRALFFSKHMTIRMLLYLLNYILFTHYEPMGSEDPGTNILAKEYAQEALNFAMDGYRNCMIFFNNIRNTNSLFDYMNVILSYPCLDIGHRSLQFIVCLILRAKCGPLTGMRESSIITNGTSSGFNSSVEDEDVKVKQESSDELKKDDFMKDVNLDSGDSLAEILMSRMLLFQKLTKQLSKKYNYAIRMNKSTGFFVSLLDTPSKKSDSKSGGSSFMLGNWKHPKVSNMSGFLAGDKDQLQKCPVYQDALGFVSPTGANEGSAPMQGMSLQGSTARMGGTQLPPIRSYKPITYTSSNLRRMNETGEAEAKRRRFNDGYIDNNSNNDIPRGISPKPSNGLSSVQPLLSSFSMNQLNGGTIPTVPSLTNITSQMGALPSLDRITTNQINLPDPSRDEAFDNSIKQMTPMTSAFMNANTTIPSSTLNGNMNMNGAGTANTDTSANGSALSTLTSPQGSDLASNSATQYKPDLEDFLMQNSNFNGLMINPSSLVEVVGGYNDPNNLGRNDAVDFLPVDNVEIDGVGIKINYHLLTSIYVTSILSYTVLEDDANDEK
How it was run: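 Yeast transcription factors, full-length or as DNA-binding domains, were expressed with a GST tag using PURExpress in vitro transcription/translation. At about 100-200 nM they were applied to universal all-10-mer Agilent arrays, double-stranded by primer extension on fresh or once-stripped slides. Fluorescent anti-GST detected bound protein, and masliner normalised the scans. E-scores for ungapped eight-base words, pooled with reverse complements, came from the Universal PBM Analysis Suite.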

Sequence	PBM E-score
CCGTTTAC	0.148
CATGTACA	-0.238
CACGGCTC	0.093
GCGTACAA	-0.22
ACTATGCG	0.0886
CTCGCATC	0.0149
AGCATGAA	-0.127
AATGGTCT	-0.061
ATGACCTC	-0.155
ACTCAGCG	0.00119
GGGCAAGA	0.214
AGTGGAGC	-0.224
ATAAATCA	-0.147
TATGCCAA	-0.144
CCGGTGAA	0.218
CGGAGCTA	0.443
AGGTGGCA	-0.131
CTACGGAA	0.17
AACTTGAC	-0.201
GCATTAGA	-0.112
CCCTGCAC	-0.198
GCGCCGAC	0.227
GGATACCA	0.167
GATACCGA	0.185
GAGAGTAC	0.0133

Sequence	PBM E-score
AGGGAGTC	-0.324
AAGGTCGT	-0.281
AAAGCCTC	-0.104
GGGCTGGA	0.0689
CGTTCAAG	-0.0615
ACAGTGGC	-0.0988
GCAGAGGA	-0.252
TACCTCGA	-0.168
CAGTAACG	-0.0765
TCCCATAA	-0.253
AACACAGT	-0.165
CCACTTAA	-0.00639
ACAGTTGC	-0.156
ATTTACCA	0.0182
CCGCTTCC	0.189
AGGTGCTC	-0.269
AAGAGATC	-0.128
CATCTACG	-0.00563
AGCCCCAC	0.0459
AAACTCGC	-0.015
CGGTAATC	0.327
CTATCCTA	-0.0367
ATGGTTAG	-0.00971
CTCCACAC	-0.21
GCAAATCC	0.192

Sequence	PBM E-score
AGCATCCA	-0.168
CTGCAAAG	-0.243
GGGGAGCA	0.0129
AACCGGAG	0.425
GCCGCCAC	-0.0674
CTGCTTAA	-0.0757
CCAGTTAG	-0.31
CTGCCCAG	-0.0165
CAGCTAAG	-0.304
CTGAAGTA	-0.157
ACAACGTG	-0.24
GGCTAGAC	0.039
CGGCAACG	0.236
CCATTGCA	-0.258
CCGTAGCC	0.0489
ACTTACTG	-0.0636
CTCGAACA	-0.215
CAATTGAC	-0.0709
AGTTCTAC	-0.371
ACCGACCG	0.314
CCACCGCC	-0.0239
ATTTGGCA	-0.18
GAGACTCA	-0.141
GCCTGTTA	-0.172
AGATGAAG	-0.0989

Sequence	PBM E-score
GGCAACCA	-0.0667
ACTCATGG	-0.149
AGGGGCTG	-0.193
ATTTCTTC	0.0687
CTGTACGC	-0.0906
GCCGAAAA	0.345
AGTCAACT	-0.365
CTAGTGCA	0.00582
ACAAATTC	0.0612
CAATCGGC	0.138
CCAAGCTC	-0.0808
CACAATAA	-0.225
CAGTATTC	-0.0399
TGTGCCAA	-0.158
GCCAAACA	-0.0236
GCCGCACC	0.237
CCTGACAG	-0.149
GCTCGGCC	0.375
GCAAAGCA	-0.136
CTATCGAC	-0.00833
AGGGCTCA	-0.274
ACAGTACT	-0.105
CTCCCGTC	0.136
AATCGGGA	0.159
AAGCTTGT	-0.0185

Sequence	PBM E-score
GCCGTCAA	-0.0328
CGAGCTTA	0.106
CCTGATCC	0.0524
AGCGACAA	-0.227
AAGGTTTG	-0.0647
CTTCTGCC	-0.0164
GTTTGGCA	-0.126
TATGGCAA	-0.122
CCTATCTC	0.169
CTGGAGCA	-0.163
GACGGCTC	-0.00803
AAATACCC	0.189
ATGCCTGC	-0.0759
CTACGTAA	-0.0964
ATGGAGGC	-0.136
CATACAGA	-0.208
AAGTTCGA	0.0368
CGTGTCCA	-0.162
AGAACCTG	-0.205
ATGTCGTA	-0.278
GATTAAAC	0.231
TAACGATA	-0.0672
ACCAAGTG	-0.239
AGGGCGGA	0.17
AGGGACTC	-0.11

Sequence	PBM E-score
TGATCGAA	-0.0835
GTCGGCGA	0.218
CAGCTCAG	-0.183
AATGGTGT	-0.0527
ATATTTCC	0.427
CCTGTCCC	-0.0962
TATGCCGA	0.313
CGCTCCAC	-0.0525
CATTTTAG	0.137
ACAGCCTC	-0.234
TCTTTACA	-0.0952
TAGAGCAA	-0.296
ATTCGAAG	-0.149
AGCTAAAA	-0.0324
ATGGCATG	-0.0873
GGTCGAAA	0.117
GACCCTAC	0.105
AGGGCCTC	-0.0802
CGCGGTAA	0.311
AAGGCTGT	-0.102
GGTACTCA	-0.177
ATAGCGAT	-0.102
CCCTTCAC	-0.265
GGTTCGTA	0.0156
CTGCCGTA	-0.193

Sequence	PBM E-score
GCACCATA	-0.188
TATCACAA	-0.0889
CTTTTGTC	0.1
AAACTTCG	0.0798
AACAGACG	-0.0207
GCAAAGAC	-0.0209
ACATCGGC	0.298
GCATTCAC	0.115
ACAATAGT	-0.0759
AAGAATAA	-0.256
GTCGTATA	-0.0879
AAGGAGCT	-0.166
CTACATGC	-0.161
ACTTGGAA	-0.215
ATCTGGCA	-0.153
CCAGACGA	-0.0873
ACGGCAAG	-0.00661
AATGCCAC	-0.092
AACTCAAG	-0.212
AGTTGGTA	-0.181
GCGACCCC	0.0909
ACTTGGCG	-0.135
CGAAAGCG	-0.00421
AATGGAAC	0.00471
AAGAATAG	-0.171

Sequence	PBM E-score
ACCAGAGC	-0.00361
GGGACATA	0.0939
CCTTGTCG	-0.241
ATCTCATG	-0.201
AGGGCTCC	-0.192
CAGATCTG	-0.17
AATTAAGT	0.0567
CGACAAAC	-0.0074
AATTCAGA	-0.118
CGTCGTAC	-0.0489
ACTGGAGC	0.00473
GGCACGAA	-0.0657
CAAAAGCG	0.0304
ACAAAACT	-0.132
GGAATTCA	0.0418
CACGGGGG	0.109
TGACCTCA	-0.226
CTTGGCAA	-0.293
CAATGCTG	-0.128
GGAGTACA	0.017
CCAAAAGG	-0.269
GTTGATCA	-0.132
GAATAGAC	-0.138
GTGGGTGA	0.0464
GAAACCGA	0.274

Sequence	PBM E-score
ACTGATGA	-0.338
CCTCAATC	0.0231
ACATAATA	-0.0217
AATCTAGG	-0.128
ACAGTGTG	-0.29
AGCGTGTA	-0.0986
CCAGCAGA	-0.196
CTGCAAGC	-0.0709
CTGATCAA	-0.0332
CATCGGAG	0.292
CGCTGACG	-0.0759
TATGTGCA	-0.184
TATAAACA	-0.132
GTCTGCCA	-0.155
ACGAAACA	-0.101
AAATTAAA	0.0667
ACTGGCCA	-0.236
GTCTCCGA	0.332
AATCTGCC	0.173
GCATCAGA	-0.122
GTACCCTA	-0.197
AACGTCTT	-0.223
GTCACAAA	-0.105
AATTCTCT	-0.163
CCCCGGAG	0.393

Sequence	PBM E-score
CAGTTTGA	-0.101
ACACCTGT	-0.114
GCCGCTCC	0.18
AAGGCGCT	-0.0886
CGCTGCAA	-0.194
CCGTTCTC	0.0528
AAATAGGA	-0.021
AGAGGGTA	-0.233
AACTGCTG	-0.211
CGCAGCCG	0.0488
GATAATTA	0.21
CACTGACG	-0.147
CGCTCAAA	-0.0153
TAAGCGGA	0.115
CGTTAGCC	0.0859
CCCAACCC	-0.112
CAGAACTA	-0.105
ACGCCACT	-0.102
AGCTACCG	0.065
AGTGTACG	-0.0714
ATCCAATA	-0.0322
CCGAGCCC	0.32
CGCCGGTC	0.295
ATAGTTAA	0.0382
GATTGTGA	-0.00642

Sequence	PBM E-score
GACAGCTC	0.131
GAAAGGAC	0.194
GTTGAGCA	-0.113
CGAAGCGC	0.203
TACTCTCA	-0.175
GACAGGCC	0.0094
GCGGCAGA	0.0262
CGAAAGGC	0.115
AAAATTGA	-0.0494
AGTTTGCC	0.0853
CCCTACCA	-0.0985
TGGTCTAA	-0.138
CTACTGTA	-0.138
ATCGCGAC	0.00288
AGTTCGCA	0.0614
AACCGCAT	0.0775
CCCAACGG	0.123
ATCTAACC	0.064
AGAGGACA	-0.209
CGAAGGCG	0.158
GTGTCATA	0.00842
AATTGGCT	-0.0721
CGTTTAAC	0.046
ACTAAACT	-0.135
CGAGCTAG	0.0589

Sequence	PBM E-score
ATGACAAA	-0.265
CCTGAGAG	-0.155
AAGCCACC	-0.158
ACCCGTTC	0.196
CCCCCAAA	-0.373
TACCGCAA	0.08
CCTCTGAG	-0.12
ACACGTTG	-0.251
ATGCCCCG	0.282
AGAAACGA	-0.0519
ACATCCCC	0.247
GAGATCGC	0.0756
ACGGTGAG	0.0357
CATCCTGA	-0.0998
CCATGGTA	-0.0739
AATGTACC	-0.211
TGAACTAA	-0.137
GGATAACC	0.149
CTCGAGAG	-0.191
AAGTTATC	0.0681
CGTTTCCC	0.124
CCTACTCA	-0.105
GTAGGAGA	-0.116
AAAGACAG	-0.0463
GGCATAAA	0.102

Sequence	PBM E-score
CCCAGTAG	-0.00837
ACAGTGAA	-0.139
GACCTGAC	-0.205
AGAGGGCG	0.0396
AGCCCCTA	-0.145
GAGGCCCA	-0.0403
AAGCGGAG	-0.0297
CTCCGTAA	0.296
CGCGACAG	0.031
CGCACAGA	-0.0892
CCCATCTC	-0.111
AAGATCTT	-0.114
CTTTTTAA	-0.129
CGGCGTCA	0.168
CTCTGCAG	-0.247
CCCTTGAC	-0.205
CAACTATG	-0.168
CAGGACTA	-0.0953
CGATTTCA	-0.0807
CGTTTCCA	-0.121
CTCGTTTA	-0.0689
ACTATCAA	0.0295
CCAGCCGA	0.113
CGGAACTC	0.309
ACAAGCGG	0.157

Sequence	PBM E-score
AATAGACC	-0.0431
GATGTCAC	-0.076
ACCGTAAT	0.077
ATGAGAAC	-0.172
ATCATGAC	-0.233
CATGCTTA	-0.152
TCTAATCA	0.0846
GGATTTTA	0.323
CTACGTAG	-0.169
AAGCGTCT	-0.175
AAATCCTG	-0.118
CACCGTAC	-0.0117
CCTAAAGA	-0.141
GTAATCGA	-0.0107
AGTGGCTA	-0.223
ACGAACAC	-0.0365
TGGAAACA	-0.0875
GAGATTCA	-0.0135
AGGCCTTA	-0.25
